# From PubChem BioAssay AID1345083 (National Center for Advancing Translational Sciences (NCATS), 2018)
# Among all 94,000 compounds or so, about 6,200 (6.6%) were called active. This list was built around the results that the source calls inconclusive (neither active nor inactive); the mix of calls is not that of the screen. Calls follow the shape of the dose curve; as a rule, active = well fitted inhibition curve with a large enough effect; inconclusive = small, poorly fitted or top-dose-only effect; inactive = flat fitted curve, though single readings scatter. Potencies of inconclusive entries are doubtful fits and often do not repeat.
# Test: Cytotoxic Profiling in HEK 293 Cell Line of Diverse Libraries Using Quantitative High-Throughput Screening; also: nearly all actives have a fitted effect of over 60% in size
# Conditions: HEK 293 viability, ATP luminescence (CellTiter-Glo), 48-72 h; activity change, negative = cytotoxicity: at 115 µM (top of the series) unless noted; series mostly up to 115 µM
# Procedure, shortened: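 250 HEK 293 cells/well; compound by pintool; incubated 48 or 72 hr at 37 degree Celsius; CellTiter-Glo added, 10 min RT, luminescence imaged.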
# % is scaled to controls: 0 for no effect and ±100 for the full control effect; potency is read from the fitted curve at half-maximal effect; tags tell the direction and shape of the fitted curve.
SMILES,"activity change, negative = cytotoxicity",Potency,outcome
CCC(C)NC(=O)C1CCCN1Cc1ccc(-c2cncnc2)cc1 (configuration not stated),inactive: -13%,,
COCCn1c(C)nnc1-c1cc(-c2cccc(O)c2)ccn1,,"inconclusive: 112 µM [inhibitor, single point]",
COCCCNC(=O)c1cc(C(C)(C)C)nc2c1cnn2C,inactive: -12.5% [at 172 µM],,
COc1ccc(CN2CC3(CCN(C(=O)CCc4ccccc4)CC3)C2=O)cc1,,"inconclusive: 44.7 µM [inhibitor, partial curve, poor fit]",
O=C(NC1CCCC1)C1CCCN1Cc1ccc(-c2cncnc2)cc1 (configuration not stated),,"inconclusive: 100 µM [inhibitor, partial curve, poor fit]",
COc1ccc(C(=O)N2CCC(n3cc(-c4nc(C(C)C)no4)nn3)CC2)c(C)c1,,"inconclusive: 28.2 µM [inhibitor, full curve, poor fit]",
COc1cccc(-c2c(C(=O)NCc3ccc(F)cc3)nc3sccn23)c1,,"inconclusive: 56.2 µM [inhibitor, partial curve, poor fit]",
COC(=O)C1=C(C)N(Cc2ccccc2F)C(=O)CC1c1ccccc1Cl (configuration not stated),,"inconclusive: 89.1 µM [inhibitor, single point]",
O=C(Nc1cc(-c2cccnc2)nn1-c1ccccc1)c1ccc(Cl)cc1,,"inconclusive: 89.1 µM [inhibitor, single point]",
COc1cccc(NC(=O)CC2CCCN(c3cnn(CC4CC4)c(=O)c3)C2)c1 (configuration not stated),,"inconclusive: 79.4 µM [inhibitor, single point]",
O=C(C1CCC1)N1CCC2(CC1)CC(Cc1nc(C3CC3)no1)CCO2 (configuration not stated),,"inconclusive: 89.1 µM [inhibitor, partial curve, poor fit]",
COc1ccccc1C(CC(=O)NCC(C)C)c1cn(C)c2ccccc12 (configuration not stated),,"inconclusive: 44.7 µM [inhibitor, partial curve]",
COc1ccccc1NC(=O)Nc1cccc(-c2nnc3n2CCCC3)c1,,"inconclusive: 50.1 µM [inhibitor, partial curve, poor fit]",
O=C(NCc1ccc(F)cc1)c1ccc2nnc(-c3ccc(F)cc3)n2c1,,"inconclusive: 63.1 µM [inhibitor, partial curve, poor fit]",
C[S+](=O)([O-])c1ccc(-c2cc(C(=O)NCC(F)(F)F)nn3cccc23)cc1,,"inconclusive: 50.1 µM [inhibitor, partial curve, poor fit]",
CCOc1ccc(NC(=O)Cn2c(-c3ccc(F)cc3)nc(C)cc2=O)cc1,,"inconclusive: 50.1 µM [inhibitor, partial curve, poor fit]",
COc1cccc(-c2cccc(C(=O)N3CCCC3C(=O)NCc3ccccc3Cl)c2)c1 (configuration not stated),,"inconclusive: 56.2 µM [inhibitor, partial curve, poor fit]",
COc1ccc(CC(=O)Nc2cc(-c3cccnc3)nn2-c2ccccc2)cc1,,"inconclusive: 79.4 µM [inhibitor, partial curve, poor fit]",
O=[S+]([O-])(NC1CCN(c2ccc3nnc(-c4ccccc4)n3n2)C1)c1cccs1 (configuration not stated),,"inconclusive: 50.1 µM [inhibitor, partial curve, poor fit]",
CCCNC(=O)[C@@H]1Cc2cn(Cc3c(C)noc3C)c3cccc(c23)[C@H](CC(C)C)N1,,active: 25.1 µM,
O=C(NCc1ccccc1)C1CCN(Cc2ccccc2-c2ccccc2F)CC1,,active: 50.1 µM,

SMILES,"activity change, negative = cytotoxicity",Potency,outcome
OC1(CN2CCCCC2)CCN(Cc2ccc(F)c(Cl)c2)C1 (configuration not stated),,"inconclusive: 56.2 µM [inhibitor, partial curve, poor fit]",
Cc1ccc(CCN2CCCC3(Cc4ccccc4CN([S+](C)(=O)[O-])C3)C2)cc1 (configuration not stated),,"inconclusive: 79.4 µM [inhibitor, single point]",
Cc1noc(C)c1S(=O)(=O)N1CCC2(C1)C(=O)N(c1ccccc1)c1ccccc12 (configuration not stated),,"inconclusive: 70.8 µM [inhibitor, single point]",
Cc1nn(C)cc1CN(C)C(=O)c1cc2cn(C(C)C)cc2s1,inactive: -8.12%,,
COc1ccc(-c2cc3nc4c(c(=O)n3[nH]2)CN(S(=O)(=O)c2cccs2)CC4)cc1,,"inconclusive: 39.8 µM [inhibitor, partial curve, poor fit]",
Cc1ccc(C(=O)N2CCc3sc(C(=O)NC(C)c4ccccc4)cc3C2)cc1 (configuration not stated),,"inconclusive: 39.8 µM [inhibitor, partial curve]",
Cc1ccccc1-c1cc(O)c2c(c1)CN(Cc1nccn1C)CCO2,,"inconclusive: 56.2 µM [inhibitor, partial curve, poor fit]",
O=C(NCc1ccc(F)cc1)C1CCCN(Cc2cccc(-c3ccc(F)cc3F)c2)C1 (configuration not stated),,"inconclusive: 22.4 µM [inhibitor, full curve, poor fit]",
Cc1noc(C)c1-c1cc(-c2cncnc2)cn2cncc12,inactive: -2.72% [at 230 µM],,
O=C(c1ccco1)N1CC(Oc2ccccc2-c2nc(-c3cnccn3)no2)C1,,"inconclusive: 44.7 µM [inhibitor, partial curve]",
COc1cccc(-c2cc(C(=O)NC(C)C)c3cnn(C)c3n2)c1,,"inconclusive: 112 µM [inhibitor, partial curve]",
O=c1[nH]c(C2CCCN(Cc3ccccc3C(F)(F)F)C2)nn1-c1ccc(Cl)cc1 (configuration not stated),,"inconclusive: 50.1 µM [inhibitor, partial curve, poor fit]",
Cc1nn(-c2ccccc2)c2c1C(C1CC1)N(C1CCN(C(=O)c3cccc(C(F)(F)F)c3)C1)C2=O (configuration not stated),inactive: -30.8%,,
COc1ccccc1N1CCN(c2ncccc2CNC(=O)c2ccco2)CC1,,"inconclusive: 50.1 µM [inhibitor, partial curve, poor fit]",
Cc1cc(C[C@@H]2COC[C@@H]2NC(=O)CCn2c(C)cc3ccccc32)on1,inactive: -9.2%,,
O=C(NC1CCNCC1)C1CCCN(c2nc(-c3ccccc3)nc3c2CCC3)C1 (configuration not stated),,"inconclusive: 63.1 µM [inhibitor, partial curve, poor fit]",
COc1cccc(CC(=O)N2CCCn3nc(C)c(-c4ccccc4OCc4ccccc4)c32)c1,,"inconclusive: 50.1 µM [inhibitor, partial curve, poor fit]",
CCN1CCN(C(=O)c2ccc3nc(-c4cccnc4Cl)oc3c2)CC1,,,inactive
O=C(c1ccc(F)c(F)c1)N1CCCC(c2noc(COc3ccccc3F)n2)C1 (configuration not stated),,"inconclusive: 44.7 µM [inhibitor, partial curve]",
O=C(Nc1ccnn1C1CCN(Cc2nccs2)CC1)c1ccc2c(c1)OCO2,inactive: -0.976%,,
C[C@]1(CO)[C@H]2Cc3sc(-c4ccsc4)nc3[C@@H](CC(=O)Nc3cccc(O)c3)[C@]2(C)CC[C@H]1O,,"inconclusive: 50.1 µM [inhibitor, partial curve]",

SMILES,"activity change, negative = cytotoxicity",Potency,outcome
COc1ccc(C(=O)N2CCCCC2c2nc(CCOc3cccc(C)c3)no2)cn1 (configuration not stated),,"inconclusive: 50.1 µM [inhibitor, partial curve, poor fit]",
COc1cccc(N2CCN(C(=O)c3ccc(N4CC5CC(C4)[C@H]4CCCC(=O)N4C5)nc3)CC2)c1 (some centres not stated),inactive: -10.6%,,
O=C(N[C@@H]1CCNC[C@H]1O)c1cccc(-c2ccc(OC(F)(F)F)cc2)c1,,"inconclusive: 20 µM [inhibitor, full curve, poor fit]",
C=CCNC(=O)c1coc(COc2ccc3ccc(OC)cc3c2)n1,,active: 44.7 µM,
CC1=C[C@@H](CO)[C@H](C(C)C)C[C@H]1CC(=O)NCc1ccc(C#N)cc1,,"inconclusive: 89.1 µM [inhibitor, partial curve, poor fit]",
COc1ccc(-c2ccc(NC(=O)C3CCCC3)cc2)nn1,,"inconclusive: 100 µM [inhibitor, partial curve, poor fit]",
O=C(C1CCCN1C(=O)c1ccc(F)cc1)N1CCC(c2nc3ccncc3[nH]2)C1 (configuration not stated),,,inactive
COc1ccccc1-c1ccc(C(=O)N2CCC(NC(=O)C3CCCC3)CC2)cc1,,"inconclusive: 56.2 µM [inhibitor, partial curve, poor fit]",
CC(C)NC(=O)C1CCN(c2nc3ncccc3o2)CC1,inactive: 3.06% [at 172 µM],,
CCN1CCC2(Cc3ccccc3CN(C(=O)c3cccc(Cl)c3)C2)C1 (configuration not stated),,"inconclusive: 56.2 µM [inhibitor, partial curve, poor fit]",
COCC1CCN(S(=O)(=O)N2CCCCC2CCc2ccccc2)CC1 (configuration not stated),,active: 44.7 µM,
CCn1cc(-c2ccc(OC)cc2)cc1C(=O)O,,"inconclusive: 89.1 µM [inhibitor, single point]",
O=C(N[C@H]1CO[C@H]2[C@@H]1OC[C@@H]2Nc1nccc(-c2ccc(-c3ccccc3)cc2)n1)C1CCCCC1,,"inconclusive: 44.7 µM [inhibitor, partial curve, poor fit]",
Cc1oc(C(O)c2ccccc2F)nc1C(=O)Nc1ccc2c(c1)NC(=O)CO2 (configuration not stated),,"inconclusive: 100 µM [inhibitor, partial curve]",
O=Cc1ccc(-c2ccc(O)cc2)cc1,,"inconclusive: 126 µM [inhibitor, partial curve, poor fit]",
CC(C)CCN(C)Cc1cccc(C(F)(F)F)c1,inactive: 3.64% [at 172 µM],,
O=C(Nc1ccc(Cl)cc1)N1CCN(c2nccc(Nc3ccccc3Cl)n2)CC1,,"inconclusive: 50.1 µM [inhibitor, partial curve, poor fit]",
N#Cc1ccc(CN2CCC3(CC2)CC(c2cccnc2)=NO3)cc1,,active: 79.4 µM,
COCCN1CCCCC(CC(=O)Nc2ccc(OC)cc2)C1=O (configuration not stated),inactive: -7.28%,,
N[S+](=O)([O-])c1ccc2c(c1)OCCN(CCc1ccccc1)C2,,"inconclusive: 89.1 µM [inhibitor, partial curve, poor fit]",
